Measurements reported in PubChem BioAssay AID624417 (National Center for Advancing Translational Sciences (NCATS), 2012).
Among all 410,000 compounds or so, about 6,400 (1.6%) were called active. This list was built around the results that the source calls inconclusive (neither active nor inactive); the mix of calls is not that of the screen. Calls follow the shape of the dose curve; as a rule, active = well fitted inhibition curve with a large enough effect; inconclusive = small, poorly fitted or top-dose-only effect; inactive = no such curve, though single readings can be large or run the other way. No potency is given beside an inconclusive call; the fits are too rough.

target: Glucagon-like peptide 1 receptor (Homo sapiens) (UniProt P43220); assay: qHTS of GLP-1 Receptor Inverse Agonists (Inhibition Mode); settings: HEK293 GLP-1R CRE-luciferase, luminescence, 24 h, GLP-1R form is constitutively active; series mostly up to 38.3 µM; also: nearly all actives have a fitted effect of over 55% in size
Method in brief: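 Stable HEK293 clone (constitutively active GLP-1R + cAMP-response luciferase); 200 cells/uL plated, 12 h pre-culture, compound 24 hr, 37 deg C/5% CO2; detection reagent 12 min RT; luminescence.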
Potency is read from the fitted curve at half-maximal effect; tags tell the direction and shape of the fitted curve.

Sequence of UniProt P43220 (P43220 whole entry, looked up): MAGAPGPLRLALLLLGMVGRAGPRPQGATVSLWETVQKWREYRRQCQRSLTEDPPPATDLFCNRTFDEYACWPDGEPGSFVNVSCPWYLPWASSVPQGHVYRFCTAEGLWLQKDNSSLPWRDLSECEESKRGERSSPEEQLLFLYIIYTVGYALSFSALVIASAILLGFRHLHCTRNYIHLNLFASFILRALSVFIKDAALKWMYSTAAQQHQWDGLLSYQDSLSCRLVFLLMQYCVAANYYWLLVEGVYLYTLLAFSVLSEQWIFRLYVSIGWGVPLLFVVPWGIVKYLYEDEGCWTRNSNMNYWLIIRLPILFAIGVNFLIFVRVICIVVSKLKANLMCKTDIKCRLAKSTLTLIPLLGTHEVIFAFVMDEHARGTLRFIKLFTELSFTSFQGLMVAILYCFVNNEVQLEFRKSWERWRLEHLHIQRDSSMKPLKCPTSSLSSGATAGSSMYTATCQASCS

Q: With `Cc1cccc(NC(=O)C2CCN(S(=O)(=O)c3c(C)c(C)cc(C)c3C)CC2)n1` as the compound, how does the Potency read?
A: inconclusive [inhibitor, partial curve, poor fit]

Q: Which Potency does the source give for `CCc1ccc(NC(=O)COc2ccc(/C=C(/C#N)c3nc4ccccc4[nH]3)cc2OC)cc1` here?
A: inconclusive [inhibitor, partial curve]

Q: How did the Potency turn out when `COc1ccc(OC)c(NC(=O)c2cc3c(s2)-c2ccccc2SC3)c1` was run?
A: inactive

Q: Which Potency does the source give for `COC(=O)[C@]12CCCCC=C1N(CCC1=CCCCC1)C(=O)[C@H](CC(=O)N1CCC(c3ccccc3)CC1)C2` here?
A: inconclusive [inhibitor, partial curve, poor fit]

Q: `COc1ccc(OC)c(NC(=S)N(CCc2c(C)[nH]c3ccc(C)cc23)Cc2cccs2)c1` was tested. Which Potency did it give?
A: active: 11.2 µM

Q: How did the Potency turn out when `O=C(CSc1nnc(CNC(=O)c2c(F)cccc2Cl)o1)Nc1ccccc1F` was run?
A: inactive

Q: For `FC(F)(F)c1ccccc1NC(=S)N/N=C1\CC2CC=CC12` (stereo not given), which Potency is on record?
A: inconclusive [inhibitor, single point]

Q: `Cc1onc(-c2ccccc2Cl)c1C(=O)N1CC(C)CC(C)C1` (stereo not given) was tested. Which Potency did it give?
A: inconclusive [inhibitor, partial curve, poor fit]

Q: `Fc1ccc(CN2CCN3CCCC3C2C2CCCCC2)cc1F` (stereo not given) was tested. Which Potency did it give?
A: inconclusive [inhibitor, partial curve, poor fit]

Q: For `COc1ccc(-c2cc(NC=O)c3ncc(-c4cccc(OC)c4)n3c2)cc1`, which Potency is on record?
A: inconclusive [inhibitor, partial curve]

Q: How did the Potency turn out when `CCC1S/C(=N/N=C/c2ccco2)N(Cc2ccccc2C)C1=O` (stereo not given) was run?
A: inconclusive [inhibitor, partial curve, poor fit]

Q: `CC(NC(=O)C1CCN(S(=O)(=O)c2ccc3c(c2)NC(=O)CO3)CC1)c1ccccc1` (stereo not given) was tested. Which Potency did it give?
A: inconclusive [inhibitor, partial curve, poor fit]

Q: Which Potency does the source give for `O=C(N/N=C\C=C\c1ccc(Br)cc1)c1ccc2c(c1)OCO2` here?
A: inactive

Q: `CC1=CC(C)(C)NC(=S)N1c1ccc(C)cc1` was tested. Which Potency did it give?
A: inconclusive [inhibitor, partial curve, poor fit]

Q: With `CC(C)Cn1c(-c2ccco2)n[nH]c1=S` as the compound, how does the Potency read?
A: inactive

Q: Which Potency does the source give for `Cc1nn(C)c(Cl)c1S(=O)(=O)N[C@@H](c1ccccc1)[C@]1(C)C[C@H]1[C@@H](C)C(=O)Nc1ccc2ccccc2c1` here?
A: inconclusive [inhibitor, full curve, poor fit]

Q: Which Potency does the source give for `S=C(Nc1ccc(CN2CCCCC2)cc1)Nc1cccc(Cl)c1Cl` here?
A: inconclusive [inhibitor, single point]

Q: With `O=c1nc(N/N=C/c2ccccn2)cn[nH]1` as the compound, how does the Potency read?
A: inconclusive [inhibitor, full curve]

Q: Which Potency does the source give for `CCCC(=O)NC(c1ccccc1OC)c1ccc2cccnc2c1O` (stereo not given) here?
A: inconclusive [inhibitor, full curve, poor fit]

Q: With `N=c1sccn1CC(=O)Nc1ccc2c(c1)CCC2` as the compound, how does the Potency read?
A: inconclusive [inhibitor, partial curve]

Q: With `Cc1ccc(SCc2[nH]nc3c2C(c2ccc(C)o2)C(C#N)=C(N)O3)cc1` (stereo not given) as the compound, how does the Potency read?
A: inconclusive [inhibitor, single point]

Q: `Cc1cccc(N2CCN(C(=O)CCC(=O)N3CC(C)Oc4ccccc43)CC2)c1C` (stereo not given) was tested. Which Potency did it give?
A: inconclusive [inhibitor, partial curve, poor fit]

Q: How did the Potency turn out when `CN(C)NC(=S)NC(=O)C12CC3CC(CC(C3)C1)C2` was run?
A: inconclusive [inhibitor, single point]

Q: Which Potency does the source give for `O=C(c1[nH]c(C(F)(F)F)nc1-c1ccccc1)N1CCc2c([nH]c3ccccc23)C1` here?
A: inconclusive [inhibitor, partial curve]

Q: Which Potency does the source give for `C#CC(C)(CC)NC(=O)Cn1nnc(-c2ccc(OCc3ccccc3F)cc2)n1` (stereo not given) here?
A: inconclusive [inhibitor, full curve, poor fit]

Q: `Cc1ccc2nc(C3CCCCC3)[nH]c2c1` was tested. Which Potency did it give?
A: inconclusive [inhibitor, single point]

Q: `COc1ccc(COC(=O)c2[nH]c3c(c2C)C(=O)CC(c2ccc(OC)c(OC)c2)C3)cc1` (stereo not given) was tested. Which Potency did it give?
A: inactive

Q: `CCCOP(=O)(c1ccccc1)c1ccccc1` was tested. Which Potency did it give?
A: inconclusive [inhibitor, partial curve, poor fit]

Q: With `Cc1cc(OCC(=O)N2CCc3ccccc3C2)c2c(-c3ccccc3)cc(=O)oc2c1` as the compound, how does the Potency read?
A: inconclusive [inhibitor, single point]

Q: For `CCCc1nn(C)c(C(=O)Nc2cccc(CC)c2)c1Cl`, which Potency is on record?
A: inconclusive [inhibitor, single point]

Q: For `CCOC(=O)C1C(c2ccccc2)NC(=S)NC1(C)O` (stereo not given), which Potency is on record?
A: inactive

Q: `COc1ccc(C2CC(c3ccc4ccccc4c3)=NN2C(=O)CNC2CCCCC2)cc1` (stereo not given) was tested. Which Potency did it give?
A: inconclusive [inhibitor, single point]

Q: With `CC(C(=O)N1CCc2ccccc21)N1CCN(S(=O)(=O)c2ccc3c(c2)OCCCO3)CC1` (stereo not given) as the compound, how does the Potency read?
A: inconclusive [inhibitor, partial curve, poor fit]

Q: For `Cc1ccc(-c2noc(CSc3ccccc3)n2)cc1`, which Potency is on record?
A: inactive

Q: Which Potency does the source give for `FC(F)(F)c1ccccc1/C=N/n1c(COc2ccccc2)n[nH]c1=S` here?
A: inconclusive [inhibitor, single point]

Q: How did the Potency turn out when `Cc1ccc(C(=O)OCCN2CCN(c3ncc(C(F)(F)F)cc3Cl)CC2)cc1` was run?
A: inconclusive [inhibitor, single point]

Q: How did the Potency turn out when `O=S(=O)(NC1CCCCC1Oc1ccccc1)c1ccccc1` (stereo not given) was run?
A: inconclusive [inhibitor, single point]

Q: With `COc1ccccc1CNCc1ccc(OC)c2ccccc12` as the compound, how does the Potency read?
A: inconclusive [inhibitor, full curve, poor fit]

Q: `Cc1ccc(NC(=O)CS(=O)(=O)c2nc(-c3ccc(C)cc3)cn2-c2ccc(C)cc2)cc1` was tested. Which Potency did it give?
A: inconclusive [inhibitor, single point]

Q: Which Potency does the source give for `Cc1onc(-c2c(Cl)cccc2Cl)c1-c1nnc(-c2ccc(Cl)cc2)o1` here?
A: inconclusive [inhibitor, partial curve, poor fit]
